Laboratory results from article PMC10726135.
Some of the results follow. At the low end of the ranking the order means little. Measured with an extract: partners may take part in the binding.

The sequences below were run against T1, HNF4alpha2 (COS-7 nuclear extract) (UniProt P41235) (assay: protein-binding microarray). Conditions: COS-7 nuclear extract on double-stranded Agilent 4x180k PBM; binding buffer, salt, pH and temperature not given; high values mean tight binding; double strand, one strand shown; sequences stand for … in …GCCTAGGGAGATTAGAGTATCGGTCGA.
T1 sequence: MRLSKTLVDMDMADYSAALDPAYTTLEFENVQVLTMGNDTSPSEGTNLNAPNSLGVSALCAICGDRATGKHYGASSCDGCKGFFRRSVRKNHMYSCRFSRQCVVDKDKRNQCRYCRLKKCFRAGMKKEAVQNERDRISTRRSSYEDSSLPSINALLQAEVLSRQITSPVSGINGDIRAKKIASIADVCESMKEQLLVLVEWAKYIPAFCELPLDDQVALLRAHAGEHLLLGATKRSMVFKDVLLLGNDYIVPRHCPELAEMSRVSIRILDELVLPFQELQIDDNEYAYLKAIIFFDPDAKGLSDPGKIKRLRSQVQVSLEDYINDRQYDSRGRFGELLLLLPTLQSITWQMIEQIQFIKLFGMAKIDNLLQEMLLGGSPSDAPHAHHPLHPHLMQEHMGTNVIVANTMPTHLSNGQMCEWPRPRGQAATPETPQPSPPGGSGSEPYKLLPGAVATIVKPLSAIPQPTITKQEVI

Row | Sequence | binding signal (log2 normalized intensity)
1 | TTCAGCCAGATTCTCTCACTGCTCTGGCCA | -1.32
2 | TAACACCTGCCTTAGAAAGAGGGTGTAAGA | -1.07
3 | AGCTTTACTAAAACAGGGAGCAGGCAGATT | -1.13
4 | CATGCCCCAGATGCCCAGCAGAGGGAGCCG | 1.54
5 | TAGCTGAGTTGACCTGTGTTGACAGATGAA | 2.22
6 | TTGTTTTTGCTTGGAATGCCCTTATCTCAT | 2.32
7 | GGGCTCCCGGACCCTGACTCTGCAGCCGAA | -1.24
8 | TGGAGAGCAGATGCTTCCCAGAAAGAATGA | -1.08
9 | ATGTCACAGGGATTACGATCCTGCCCTTCT | 1.9
10 | ACGGTTTCGTGGGGACCCAGGCTTGCAAAG | -1.14
11 | ATCTCACACAGTACTTTGTACATGGGAATA | 1.32
12 | CTGGACAGAGATAAGGTAGGCACGTAAATA | -1.19
13 | TACGTGACCTACTTAGTCTCCAGCCCCCAG | 4.02
14 | GCTTCCCTAGCAACCTCCACATTGCAACAA | -1.08
15 | GCCGGACCGGCCAAACTGGTTTCTCCGCTC | -1.19
16 | GGCATCCCTGCCGTGGCTGGAACTCCTCCG | -1.15
17 | AAGACTTTATTTGAAGAAATGGTGGACTTT | 6
18 | ACTTGACAAATGGGGCAGCTGGGGCCCAGG | -1.08
19 | TAGGACTCTAGTGTTCTCTTTGTGCTTTTT | 1.72
20 | TCTCAGGTGGGCAGAGGCCTGATGGTGAGT | -0.39
21 | AAGGGGGCAAAGGGCATGGGCAGCTTTGAA | 4.56
22 | TGAGGCAAGCAAAAGCCAAGGCATCTGGGG | -1.08
23 | GGGGGGTTGTTTTTAAAAGGCTGCCTTTCC | 0.0995
24 | TCTGCTGAGTATCCAAAGGTCAGTGACAAA | 4.12

Row | Sequence | binding signal (log2 normalized intensity)
25 | GTTTCCTAGTTCAAACAGGCCCTCCTCCTC | 0.368
26 | TAGAACACTTTCCACTCTCTACTGATATGT | 1.12
27 | GATACCATCAGATACCTACTCTGCTCTTCT | -1.13
28 | CATTGACTGAGATAGATAAGGCTGAGTGGA | -0.735
29 | AGTCCAGACAAGTCCCAAGTATTTTCAGCC | -0.962
30 | CAAACGGATATTTGATCAAAGGTCAGCTCT | 5.04
31 | TTGGATATCATATCATCTTCCCTGTTCAAA | 1.78
32 | ATGGGACCTTTGCCCTTCTTGTTAACCTCC | 3.94
33 | GTCCAAAGTCTCAACTAAGTGTTATCTAAA | 1.28
34 | AGACAAGATATGAGGCCAGTTTTCCCAAAG | -1.13
35 | CTATTGTCCTATGACCCTGCCAAATCCCCC | 4.52
36 | GGTCTTCTAGAAACAACACACCTTGCCACC | -1.09
37 | AGCATGGAGAAAATTCTGGACCTTCTTATC | 0.911
38 | GTAACATTCCTAGATATCAGGAAGGTCAGA | 1.26
39 | TTCTCCAGCTGCTGTAAGGTTACTGAGGGC | 0.386
40 | GCGGCATTCCTGTCAAAATCTGATCTTTCC | 1.45
41 | GAACAATTATTGCCTGGCATCTAACCTTCG | 0.557
42 | TAGACAAATTTGTTTACTTCTGTCTCCAGA | -1.19
43 | TATGGATAGGCACATATTGGATCTCTGGTA | 0.865
44 | AGGGCAAAAGGGCAAAACTGTCACAAGAAA | 0.982
45 | TACGCTGGGCAATAAGCATTCTGTTTCCTA | -0.931
46 | CAAATTGGATGTTGAACCTCTGTCCTTGGC | 2.25
47 | TGTTGGAGTTCTAAGAGCCTACTGAGAGGA | -1.19
